Drawing on PubChem BioAssay AID488969 (Vanderbilt High Throughput Screening Facility, 2010), this text covers z-score for 110 molecules.

The structures appear in SMILES notation. The full ranking holds about 110,000 compounds; the median of “z-score” is about -0.1, and the highest 2% start at about 2. The list shows a part of the results. Active and inactive are the calls of the source.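 Rule for the calls: active = z-score in the third read window above 3 or below -3; inactive = the rest.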

For this experiment, the target named is Metabotropic glutamate receptor 8 (Rattus norvegicus) (UniProt P70579). As to the kind of experiment: mGluR8 Gi/Go-coupled signaling modulation – cell-based, rat, thallium flux, HTS, primary screen (AID 488969). The conditions noted are these: HEK293 rat mGluR8, GIRK (G protein-gated inwardly rectifying potassium channel) thallium flux, FluoZin2; at 10 µM; stronger effect = higher value; submaximal glutamate (EC20) added with thallium.
Chain of UniProt P70579 (P70579 whole entry, looked up): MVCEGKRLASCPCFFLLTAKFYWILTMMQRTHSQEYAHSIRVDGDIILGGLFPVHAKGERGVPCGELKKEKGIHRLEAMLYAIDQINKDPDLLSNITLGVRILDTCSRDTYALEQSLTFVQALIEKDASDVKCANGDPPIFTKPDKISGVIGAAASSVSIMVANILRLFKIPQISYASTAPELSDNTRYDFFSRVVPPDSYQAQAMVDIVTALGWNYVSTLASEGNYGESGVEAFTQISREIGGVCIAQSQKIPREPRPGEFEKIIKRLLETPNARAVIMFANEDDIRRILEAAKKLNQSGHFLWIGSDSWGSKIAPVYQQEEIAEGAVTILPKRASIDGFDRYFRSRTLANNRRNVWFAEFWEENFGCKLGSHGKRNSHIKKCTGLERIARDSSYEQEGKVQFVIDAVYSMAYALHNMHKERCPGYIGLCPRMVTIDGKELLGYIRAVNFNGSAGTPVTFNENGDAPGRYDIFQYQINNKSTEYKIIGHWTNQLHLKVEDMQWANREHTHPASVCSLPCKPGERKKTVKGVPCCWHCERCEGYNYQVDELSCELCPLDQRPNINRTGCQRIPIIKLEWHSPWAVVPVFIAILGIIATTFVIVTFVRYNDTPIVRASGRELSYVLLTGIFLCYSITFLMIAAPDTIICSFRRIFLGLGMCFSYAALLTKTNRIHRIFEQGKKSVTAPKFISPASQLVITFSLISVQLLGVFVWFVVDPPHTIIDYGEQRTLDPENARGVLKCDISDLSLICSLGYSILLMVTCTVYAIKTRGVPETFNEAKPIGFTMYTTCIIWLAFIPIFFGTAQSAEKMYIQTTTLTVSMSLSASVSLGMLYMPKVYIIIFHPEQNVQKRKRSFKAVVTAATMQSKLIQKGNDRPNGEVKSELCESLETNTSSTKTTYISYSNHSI
Take `O=C1c2ccccc2C(=O)C1Cc1cccc2ccccc12`: the z-score is -0.551.
As for `CCCC1CC(C)(C(=O)CSc2n[nH]c(-c3ccccc3)n2)OC1=O` (stereo not given), the figure is -0.944; as for `CCOC(=O)/C(C#N)=C1/SC(CCO)C(=O)N1c1ccccc1` (stereo not given), -0.202.
On to `O=C(CCC(=O)c1cccs1)NC(c1ccccc1)c1ccccc1`, for which the z-score is -0.119.
As for `O=C(c1ccc(Cl)cc1)c1ccc(OCC(O)CN2CCOCC2)cc1` (stereo not given), the figure is 0.402.
The value for `CC(C)CCN1CC(C(=O)NCc2ccccc2)CC1=O` (stereo not given) was -0.0931; that for `O=C(COC(=O)CCc1c[nH]c2ccccc12)NCc1ccccc1` was -0.145; that for `Cc1csc(=S)n1-c1ccccc1` was -0.452.
The value for `O=C1CCC([N+](=O)[O-])C(c2ccc(Cl)cc2)N1` (stereo not given) was -0.101; that for `COc1ccc(Cc2nnc(SCC(=O)Nc3nc(C)cs3)o2)cc1` was 0.423.
Turning to `O=C(NCc1ccccc1)c1ccc2nc(-c3ccco3)c(-c3ccco3)nc2c1`, the z-score was -0.000879.
The value for `Cc1ccc(-c2nnc(-c3ccccc3)o2)cc1Br` was -0.207; that for `N=c1c(C(=O)NCc2ccc(F)cc2)cc2c(=O)n3ccccc3nc2n1Cc1cccnc1` was -0.514.
As for `CCCOc1ccc(/C=N/NC(=O)C(C)Sc2ccccn2)cc1OCC` (stereo not given), the figure is -0.455; as for `C=CCn1c(SCCC(=O)O)nnc1-c1cccs1`, 0.352.
Turning to `CC1CCc2c(sc(NC(=O)COC(=O)c3ccccc3NCc3ccco3)c2C#N)C1` (stereo not given), the z-score is -0.152.
As for `COc1cccc(N(C(=O)c2ccco2)c2nc(-c3sc(NC(=O)c4ccco4)nc3C)cs2)c1`, the figure is 0.177; as for `NC(=O)c1nsc(C(=O)N(CCc2ccccc2)C(C(=O)NC2CCCC2)c2ccco2)c1N` (stereo not given), -0.644; as for `CCc1cccc(CC)c1NC(=O)c1cccc(N)c1`, 0.18.
As for `O=C(Nc1cccc(S(=O)(=O)Nc2ccccc2Cl)c1)c1ccc(N2CCCC2)c([N+](=O)[O-])c1`, the figure is -0.269; as for `Cc1ccc2nc(C)c(C(=O)N/N=C/c3cccs3)n2c1`, 0.0322; as for `CN(C)S(=O)(=O)Oc1ccccc1C(=O)Nc1cccc(C(F)(F)F)c1`, -0.828.
As for `CCOc1ccc(/C=N/OCC(=O)NC(c2ccccc2)c2ccccc2)cc1`, the figure is -0.0375; as for `COC(=O)c1cc(OC)c(OC)cc1NC(=O)c1c(C)noc1C`, -0.196.
Take `Cc1cc2nc(Sc3c([N+](=O)[O-])nc(C)n3Cc3ccccc3)[nH]c2cc1C`: the z-score was -0.172.
In turn, `COc1ccc(CC(=O)Nc2c3c(nn2-c2cccc(C)c2C)CS(=O)C3)cc1` (stereo not given) showed a z-score of 0.448.
As for `Cc1ccn2c(NC(=O)c3cccs3)c(-c3ccccc3)nc2c1`, the figure is -0.235; as for `Cc1ccc(/C=N/Nc2nc3ccccc3[nH]2)s1`, -1.02; as for `O=C(OCC(=O)c1c[nH]c2ccccc12)c1ccco1`, 0.55.
For the molecule `CCc1ccc(/C=C2\Oc3cc(OC(=O)N4CCOCC4)ccc3C2=O)cc1`, the z-score was -0.203.
As for `Cc1nonc1OCC(C)(COc1nonc1C)NC(=O)c1ccccc1`, the z-score was -0.133.
`CCOCc1cnc(C)nc1NCC(=O)c1c(C)n(C)c2ccc(OC)cc12`: the z-score is -0.538.
As for `COCCCNC(=S)Nc1ccccc1C`, the figure is -0.354; as for `CC(C)Cc1cc(C(=O)O)n[nH]1`, -0.0715; as for `Cc1ccc([N+](=O)[O-])cc1S(=O)(=O)N1CCCC1`, 0.862.
As for `COC(=O)COc1ccc(S(=O)(=O)NC2CCCCCC2)cc1`, the figure is 0.0304; as for `Cc1cc(Cl)c(S(=O)(=O)Nc2ccc3c(c2)OCCO3)cc1OCC(=O)NC1CCCCC1`, -0.0409.
Consider `CCOC(=O)N1CCC(=NNC(=O)COc2cccc(C)c2)CC1`, for which the z-score was -0.205.
As for `CN(CCC#N)C(=O)Cn1nc(Cc2ccncc2)c2ccccc2c1=O`, the figure is 1.89.
As for `COc1cc(/C=N/NC(=O)CN(Cc2ccco2)S(=O)(=O)c2ccccc2)ccc1O`, the figure is -0.0377; as for `COc1ccc(OCC(=O)Nn2c(-c3ccc(OC)cc3)nc3ccccc3c2=O)cc1`, -0.171.
The value for `Cc1nn(S(=O)(=O)c2ccccc2)c(C)c1Sc1ccc([N+](=O)[O-])cc1` was 0.407; that for `COc1ccc(NC(=O)Cc2nnc(SCC(=O)Nc3cc(C)ccc3OC)n2C)cc1` was 0.127.
For `CC1CCCN(CCCCOc2cccc(Br)c2)C1` (stereo not given), the z-score is 0.299.
In the case of `Cc1ccc2nc(Cl)c(CN(Cc3cccs3)C(=O)C3CC3)cc2c1`, the z-score was -0.39.
Take `CCOc1ccc(C(=O)Nc2ccccc2C#N)cc1[N+](=O)[O-]`: the z-score was -0.246.
As for `O=C(O)CCn1c(=O)c2ccccc2c2ccccc2c1=O`, the figure is 0.43; as for `COc1ccccc1N(CC(=O)NCc1ccccc1)S(C)(=O)=O`, -0.0906; as for `O=C(COC(=O)C1CCN(S(=O)(=O)c2cccs2)CC1)c1cc2ccccc2o1`, -0.255.
For the molecule `C=C(C)Cn1c(SCC(=O)O)nnc1-c1ccccc1`, the z-score came out at 0.335.
The value for `O=C1CSc2ccc(C(=O)NCCC3=CCCCC3)cc2N1` was -0.076; that for `COc1cc(C2SCC(=O)N2c2nnc(C34CC5CC(CC(C5)C3)C4)s2)cc(OC)c1OC` (stereo not given) was -0.027; that for `CC(C(N)=O)N1C(=O)c2cccc3cccc1c23` (stereo not given) was -0.394.
The value for `O=C(CCc1nc2ccccc2c(=O)[nH]1)N1CCN(C/C=C/c2ccccc2)CC1` was -0.202; that for `CC(=O)c1cccc(N=Nc2c(C)[nH]c3ccccc23)c1` was -0.164; that for `COc1nc(C)nc2c1ccc1ccccc12` was -0.195.
Take `O=C1CC(SCCc2nc3ccccc3[nH]2)C(=O)N1c1ccc(F)cc1` (stereo not given): the z-score was -0.0844.
The value for `COc1ccc(C2C/C(=N\O)C(C)(C)O2)cc1` (stereo not given) was -0.0235.
For `O=C(CN1C(=O)c2ccccc2C1=O)NCC(=O)OCC(=O)c1ccc(Br)cc1`, the z-score is -0.128.
As for `O=C(c1cc(C(=O)NCCc2ccccc2)c(=O)n(CCc2ccccc2)c1)c1cc(Cl)ccc1O`, the figure is 0.734; as for `COC(=O)/C=c1/s/c(=C(/C#N)C(=O)N2CCOCC2)n(-c2ccccc2)c1=O`, 0.183; as for `O=C(COc1ncnc2c(Cl)cc(Cl)cc12)Nc1cc([N+](=O)[O-])ccc1Cl`, -0.283.
As for `O=C(N/N=C/c1ccccn1)C1CC1`, the figure is -0.192.
The value for `O=C(c1ccccc1)N1CCN(Cc2cccc(Oc3ccccc3)c2)CC1` was -0.231; that for `Cn1nc(OC(=O)Nc2ccc(F)cc2)cc1C(F)(F)F` was -0.132.
As for `Cc1ccc(N=Cc2sc(O)c3ccccc23)cc1`, the z-score is -0.16.
As for `O=C(/C=C/c1ccccc1)NNC(=O)c1cccc(Cl)c1`, the figure is 0.0372; as for `Cc1cc(C(F)(F)F)nn1Cc1n[nH]c(=S)n1-c1ccc(F)cc1`, 1.08; as for `O=C(CSc1nnc(CNC(=O)c2ccco2)o1)c1ccccc1`, 0.135.
For `COCCN(CCOC)S(=O)(=O)c1ccc(C(=O)Nc2sc3c(c2C(N)=O)CCCCC3)cc1`, the z-score was -0.439.
The value for `COc1cc2c(cc1OC)CN(C(=S)Nc1ccccc1)CC2` was -0.147; that for `COC(=O)C1CCN(c2ccc(C(N)=O)cc2[N+](=O)[O-])CC1` was -0.32.
The value for `CCSCCOC(=O)C1=C(C)NC(=O)NC1c1cc(OC)ccc1OC` (stereo not given) was -0.497.
In the case of `Cc1cc(C)cc(Oc2nc(-c3ccccc3)cc(C)c2S(C)(=O)=O)c1`, the z-score is -0.13.
Turning to `Cc1cc(C)cc(N(CCC(=O)Nc2nnc(C3CC3)s2)S(=O)(=O)c2ccc(Cl)cc2)c1`, the z-score is -0.0851.
Consider `O=C(Nc1cccnc1)C1CCCN(S(=O)(=O)c2ccccc2)C1` (stereo not given), for which the z-score is -0.631.
As for `COc1ccc(C(=O)CSc2nncn2C)cc1`, the figure is -0.0383; as for `CC(=O)c1c(N2CCOCC2)nc(=S)n(-c2ccc([N+](=O)[O-])cc2)c1C`, 0.0619; as for `COCCn1c(SCC(=O)Nc2sccc2C(N)=O)nc2cc(Cl)ccc2c1=O`, -0.446.
As for `O=[N+]([O-])c1ccc(N/N=C/c2c[nH]c3ccccc23)cc1`, the figure is -0.323.
The value for `CCC(C)NC(=O)Cn1cc2c(n1)CCC(C)C2` (stereo not given) was -0.283.
Molecule `COc1ccc(C(=O)Nn2c(SCC(=O)NC3CCCC3)nc3ccccc3c2=O)cc1` returned a z-score of 0.419.
The value for `O=C(/C=C/c1cccc(F)c1)Nc1cc(S(=O)(=O)N2CCOCC2)ccc1N1CCCC1` was -0.109.
The value for `O=C(CN1C2=NCCCN2c2ccccc21)c1cccs1` was -0.083; that for `COc1ccc(/C=N\NC(=O)COc2ccccc2)c(C(=O)O)c1OC` was -0.256.
The value for `COc1ccc(C(=O)n2nc(-c3ccco3)nc2N)cc1` was -0.0115; that for `Cn1c2ccccc2c2cc(C(=O)OCC(=O)N3CC(=O)Nc4ccccc43)sc21` was -1.33; that for `O=C(/C=C/c1ccc(Cl)cc1)NC(=S)NN1CCCCC1c1cccnc1` (stereo not given) was 2.97.
Regarding `O=C(Oc1ccccc1N1C(=O)C2CCCCC2C1=O)c1ccc(Cl)cc1` (stereo not given), the z-score was -0.0317.
As to `COc1ccccc1C(=O)NC(=S)Nc1ccc(NC(=O)c2cccs2)cc1`, the z-score is 0.853.
Consider `Cc1ccnc(SCCn2c(N3CCOCC3)nc3c2c(=O)n(C)c(=O)n3C)n1`, for which the z-score was 0.0114.
As for `CCCCNC(=O)C1C2C=CC(C2)C1C(=O)O` (stereo not given), the figure is -0.0934; as for `CCNC(=S)Nc1ccc(Cl)c(C(F)(F)F)c1`, 0.39.
As for `COc1cc(C(=O)CSc2nncn2C)cc(OC)c1OC`, the figure is -0.245; as for `N#C/C(=C\c1ccc2c(c1)OCCO2)C(=O)NC1CCCCC1`, -0.000416.
The value for `CSC1=C(C#N)C(c2ccccc2Cl)C(C(=O)c2cccs2)C(O)(C(F)(F)F)N1` (stereo not given) was -1.22; that for `CCOc1ccc(S(=O)(=O)N(CC(=O)Nc2cc(C)on2)Cc2ccccc2Cl)cc1` was -1.72; that for `COC(=O)c1ccc(CSc2nc3cc(Cl)ccc3o2)cc1` was -0.418.
Regarding `Cc1ccnc(NC(=O)c2cccs2)c1`, the z-score is -0.306.
The value for `O=S(=O)(c1ccc(Oc2ccc(Cl)cc2)c(S(=O)(=O)N2CCCCC2)c1)N1CCCCC1` was -0.278; that for `Cn1c(C(=O)N2CCN(Cc3ccc4c(c3)OCO4)CC2)cc2c(=O)n(C)c3ccccc3c21` was -0.512.
As to `COc1cc(OC)c(C2=NOC(C(=O)N3CCc4ccccc4C3)C2)cc1Cl` (stereo not given), the z-score was -0.587.
The value for `Cc1cccc(C)c1N1C(=O)CC(N(O)c2ccccc2)C1=O` (stereo not given) was -0.0986; that for `Cn1c(NC(=O)CCc2ccccc2)cc(=O)n(C)c1=O` was -0.492; that for `Cn1c(-c2ccc(-c3ccccc3)cc2)c[nH]c1=S` was active: 4.21.
The value for `Cn1c(=O)n(Cc2ccccc2)c(=O)c2c1nc1n2CCCN1CCc1ccccc1` was -1.53.
The value for `O=C(c1ccccc1)N1CCCC(C(=O)N2CCc3ccccc3C2)C1` (stereo not given) was -1.49; that for `O=C(N/N=C/c1cccc(OC2CSC2)c1)c1ccccc1O` was -0.125; that for `COc1ccccc1NC(=O)c1cnc2n(c1=O)CCS2` was 1.09.
Turning to `CC(=O)C1=C(C)NC(C)=C(C(C)=O)C1c1cccs1`, the z-score is -0.269.
